Source: the supplement of paper PMC2702839
Where a name gives a salt, the structure may show the parent alone. This is one part of the list.

The compounds below were run on Schistosoma mansoni schistosomula (assay: phenotypic hit in primary schistosomula screen (any phenotype vs DMSO control) (binary (1 = hit, 0 = no phenotype)); higher = active (phenotype induced)). Settings: 1 µM; time (d): 7.

| Structure (SMILES) | phenotypic hit |
| --- | --- |
| CCC1(O)CC(OC2CC(N(C)C)C(OC3CC(O)C(OC4CCC(=O)C(C)O4)C(C)O3)C(C)O2)c2c(cc3c(c2O)C(=O)c2c(O)cccc2C3=O)C1C(=O)OC (stereo not drawn) [aclacinomycin a1] | inactive: 0 |
| NC1(C(=O)O)CCC1 [1-aminocyclobutane carboxylic acid] | inactive: 0 |
| CC(=O)O[C@H]1CC[C@]2(C)C(C[C@@H](OC(C)=O)[C@]3(C)C4=CC(=O)O[C@H](c5ccoc5)[C@@]4(C)CCC23)C1(C)C (stereo partly drawn) [3-deoxo-3beta-acetoxydeoxydihydrogedunin] | inactive: 0 |
| N=C(N)NC(=O)c1nc(Cl)c(N)nc1N [Amiloride hydrochloride] | inactive: 0 |
| O=C(N[C@@H](Cc1c[nH]c2ccccc12)C(=O)O)c1ccc(Cl)cc1 [Benzotript] | active: 1 |
| CCCCOC(=O)c1ccc(N)cc1 [butamben] | inactive: 0 |
| CC[C@H]1OC(=O)[C@H](C)[C@@H](O[C@H]2C[C@@](C)(OC)[C@@H](O)[C@H](C)O2)[C@H](C)[C@@H](O[C@@H]2O[C@H](C)C[C@H](N(C)C)[C@H]2O)[C@](C)(OC)C[C@@H](C)C(=O)[C@H](C)[C@@H](O)[C@]1(C)O [clarithromycin] | inactive: 0 |
| CCCCC1=NC2(CCCC2)C(=O)N1Cc1ccc(-c2ccccc2-c2nnn[nH]2)cc1 [irbesartan] | inactive: 0 |
| COc1cc2c(cc1OC)Cc1cc(OC)c(OC)cc1Cc1cc(OC)c(OC)cc1C2 [cycloveratrylene] | inactive: 0 |
| C[C@@H]1O[C@@H](O[C@H]2[C@H](Oc3cc(O)c4c(c3)O[C@H](c3ccc(O)cc3)CC4=O)O[C@H](CO)[C@@H](O)[C@@H]2O)[C@H](O)[C@H](O)[C@H]1O [naringin] | inactive: 0 |
| CC(=O)OCC(=O)[C@@]12OC3(CCCC3)O[C@@H]1C[C@H]1[C@@H]3CCC4=CC(=O)C=C[C@]4(C)[C@@]3(F)[C@@H](O)C[C@@]12C [amcinonide] | inactive: 0 |
| C#CC1(O)CC[C@H]2[C@@H]3CCC4=CC(=O)CC[C@@H]4[C@H]3CC[C@@]21CC (mixture of isomers) [norgestrel] | inactive: 0 |
| CCCC(=O)Nc1ccc(OCC(O)CNC(C)C)c(C(C)=O)c1 (stereo not drawn) [acebutolol hydrochloride] | inactive: 0 |
| C[C@@H]1O[C@@H](OC[C@H]2O[C@@H](Oc3c(-c4ccc(O)c(O)c4)oc4cc(O)cc(O)c4c3=O)[C@H](O)[C@@H](O)[C@@H]2O)[C@H](O)[C@H](O)[C@H]1O [rutoside  (rutin)] | inactive: 0 |
| CN1[C@@H]2CC[C@H]1C[C@@H](OC(c1ccccc1)c1ccccc1)C2 [Benztropine mesylate] | active: 1 |
| CC(=O)Nc1ccc(OCC(O)CNC(C)C)cc1 (stereo not drawn) [practolol] | inactive: 0 |
| C[C@H](CCC(=O)O)[C@H]1CC[C@H]2[C@@H]3C[C@H](O)[C@@H]4C[C@H](O)CC[C@]4(C)[C@H]3CC[C@]12C [alpha-hyodeoxycholic acid] | inactive: 0 |
| COc1c(O)cc(O)cc1O [iretol] | inactive: 0 |
| CCCCC[C@@H](O)[C@H]1C(=O)O[C@H](C)[C@@H](O)/C=C/C=C/C=C/C=C/C=C(\C)[C@@H](O)C[C@H](O)C[C@H](O)C[C@H](O)C[C@H](O)C[C@H](O)C[C@@H]1O [filipin] | inactive: 0 |
| O=C(O)/C=C/C=C/c1ccccc1 [juarezic acid] | inactive: 0 |
| CCCCC1C(=O)N(c2ccccc2)N(c2ccccc2)C1=O [Phenylbutazone] | inactive: 0 |

| Structure (SMILES) | phenotypic hit |
| --- | --- |
| COc1ccccc1-c1cc(=O)c2cccc(OC)c2o1 [8,2'-dimethoxyflavone] | inactive: 0 |
| C#C[C@]1(OC(C)=O)CC[C@H]2[C@@H]3CCC4=CC(=O)CC[C@@H]4[C@H]3CC[C@@]21C [norethindrone acetate] | inactive: 0 |
| CC1=CC(=O)c2ccccc2C1=O [menadione] | inactive: 0 |
| CC(=O)/N=c1/sc(S(N)(=O)=O)nn1C [methazolamide] | active: 1 |
| CC(Cc1ccc(O)c(O)c1)C(C)Cc1ccc(O)c(O)c1 (stereo not drawn) [nordihydroguaretic acid] | inactive: 0 |
| CC(C)=CCC/C(C)=C\CO [nerol] | inactive: 0 |
| COc1cc(C(C)=O)cc(OC)c1O [acetosyringone] | inactive: 0 |
| Cc1ccc(C(=O)C(C)CN2CCCCC2)cc1 (stereo not drawn) [tolperisone hydrochloride] | inactive: 0 |
| CCC(=O)c1ccc2c(c1)N(CC(C)N(C)C)c1ccccc1S2 (stereo not drawn) [propiomazine maleate] | inactive: 0 |
| O=C(CCCCC(=O)Nc1c(I)cc(I)c(C(=O)O)c1I)Nc1c(I)cc(I)c(C(=O)O)c1I [iodipamide] | inactive: 0 |
| CC(C)(C)NCC(O)COc1cccc2c1CC(O)C(O)C2 (stereo not drawn) [nadolol] | inactive: 0 |
| Cc1cc(O)cc(O)c1C(=O)O [orsellinic acid] | inactive: 0 |
| CCC(C)C(=O)OC1[C@@H]2CC3=C4CC(=O)O[C@@H](c5ccoc5)[C@]4(C)CCC3[C@@](C)(C2=O)[C@@H](CC(=O)OC)C1(C)C (stereo partly drawn) [khayasin] | inactive: 0 |
| CC1=C(C(=O)O)N2C(=O)[C@@H](NC(=O)[C@H](N)c3ccccc3)[C@H]2SC1 [cephalexin] | inactive: 0 |
| O=C1C(O)=C(O)C(=O)C(O)=C1O [tetroquinone] | inactive: 0 |
| COc1ccc2c(c1)c(CC(=O)OCC(=O)O)c(C)n2C(=O)c1ccc(Cl)cc1 [acemetacin] | inactive: 0 |
| Cc1c2oc3c(C)ccc(C(=O)N[C@@H]4C(=O)N[C@H](C(C)C)C(=O)N5CCC[C@H]5C(=O)N(C)CC(=O)N(C)[C@@H](C(C)C)C(=O)O[C@@H]4C)c3nc-2c(C(=O)N[C@@H]2C(=O)N[C@H](C(C)C)C(=O)N3CCC[C@H]3C(=O)N(C)CC(=O)N(C)[C@@H](C(C)C)C(=O)O[C@@H]2C)c(N)c1=O [dactinomycin] | active: 1 |
| COc1ccc2c(c1)OC[C@@H](Cc1ccc(OC)c(OC)c1)[C@@H]2O [3-deshydroxysappanol trimethyl ether] | inactive: 0 |
| COc1c(Cl)c(C)c2c(c1Cl)OC(=O)c1c(C)c(Cl)c(OC)c(Cl)c1O2 [diploicin methyl ether] | inactive: 0 |
| COc1ccc2cc3[n+](cc2c1OC)CCc1cc2c(cc1-3)OCO2 [berberine chloride] | inactive: 0 |
| COc1ccc2c(c1)CC[C@@H]1[C@@H]2CC[C@]2(C)[C@@H](O)[C@H](O)C[C@@H]12 [estriol methyl ether] | inactive: 0 |

| Structure (SMILES) | phenotypic hit |
| --- | --- |
| CC1(C)C2CC(=O)[C@]3(C)C(CC[C@@]4(C)[C@H](c5ccoc5)OC(=O)C5OC543)[C@@]2(C)C(=O)[C@H]2O[C@H]21 (stereo partly drawn) [epoxy (2,3alpha)-7-deacetoxy-7-oxodihydroisogedunin] | inactive: 0 |
| CC(C)=CC1C(C(=O)O)C1(C)C (stereo not drawn) [chrysanthemic acid] | inactive: 0 |
| COC(=O)C[C@H]1C(C)(C)C(=O)[C@@H]2CC3C4=CC(=O)O[C@@H](c5ccoc5)[C@]4(C)CC[C@@H]3[C@@]1(C)C2=O (stereo partly drawn) [carapin] | inactive: 0 |
| OCC(S)CS (stereo not drawn) [dimercaptopropanol] | inactive: 0 |
| Oc1ccc2c(c1)O[C@H](c1ccc(O)c(O)c1)[C@@H](O)C2 [fisetinidol] | inactive: 0 |
| O=C(O)/C=C(\CC(=O)O)C(=O)O [aconitic acid] | inactive: 0 |
| Cc1c(C)c2c(c(C)c1O)CCC(C)(CCCC(C)CCCC(C)CCCC(C)C)O2 (stereo not drawn) [alpha-tochopherol] | inactive: 0 |
| CC(=O)O[C@]1(C(C)=O)CC[C@H]2[C@@H]3C=C(C)C4=CC(=O)CC[C@]4(C)[C@H]3CC[C@@]21C [megestrol acetate] | inactive: 0 |
| CC(=O)OC1CC(OC(C)=O)C2(C)C(CC(OC(C)=O)C3(C)C2CCC2(C)C(c4ccoc4)OC(=O)C4OC423)C1(C)C (stereo not drawn) [7-epikhivorin] | inactive: 0 |
| COc1cc(O)c(C(=O)c2ccccc2)cc1O [cearoin] | inactive: 0 |
| OCC(O)C(O)C(O)CO (stereo not drawn) [adonitol/arabitol] | inactive: 0 |
| C=C1CCC(=O)C(C)CCC2C1CC2(C)C (stereo not drawn) [dihydrocaryophyllen-5-one] | inactive: 0 |
| O=c1oc2ccccc2cc1O [3-hydroxycoumarin] | inactive: 0 |
| COc1cccc(/C=C/C(=O)O)c1C(C)C [2-isopropyl-3-methoxycinnamic acid] | inactive: 0 |
| O=C1OC(=O)[C@H]2[C@@H]1[C@@H]1CC[C@H]2O1 [norcantharidin] | inactive: 0 |
| O=c1[nH]c2cc(Cl)c(Cl)cc2[nH]c1=O [6,7-Dichloroquinoxaline-2,3-dione] | inactive: 0 |
| CC(C)NC(=N)NC(=N)Nc1ccc(Cl)cc1 [chlorguanide hydrochloride] | inactive: 0 |
| C[C@]12CCC3c4ccc(OS(=O)(=O)O)cc4CCC3C1CC[C@H]2O (stereo partly drawn) [estradiol-3-sulfate, sodium salt] | inactive: 0 |
| CCCC(=O)O[C@]1(C(=O)CO)CC[C@H]2[C@@H]3CCC4=CC(=O)CC[C@]4(C)[C@H]3[C@@H](O)C[C@@]21C [hydrocortisone butyrate] | inactive: 0 |
| CC1(C)S[C@@H]2[C@H](NC(=O)COc3ccccc3)C(=O)N2[C@H]1C(=O)O [penicillin v potassium] | inactive: 0 |
| COc1ccc2c3c1O[C@H]1C[C@@H](O)C=C[C@@]31CCN(C)C2 [galanthamine hydrobromide] | inactive: 0 |
